According to PubChem BioAssay AID686979 (National Center for Advancing Translational Sciences (NCATS), 2013):
Several values for one entry are separate records, joined by “and”; a condition that tells them apart may be missing. Identical values can stand only once. The campaign covered roughly 420,000 compounds. About 50,000 (12%) were called active. Inconclusive means that the source gave no clear call. Such entries were picked first, then a sample of the others. Calls come from the whole dose curve; as a rule, active = well fitted inhibition curve with a large enough effect; inconclusive = small, poorly fitted or top-dose-only effect; inactive = flat fitted curve, though single readings scatter. Potencies of inconclusive entries are left out as doubtful fits.

Assay: qHTS for Inhibitors of human tyrosyl-DNA phosphodiesterase 1 (TDP1): qHTS in cells in presence of CPT; note: nearly all actives have a fitted effect of over 55% in size
Settings: chicken DT40 Tdp1-/-;hTDP1 cells + 20 nM CPT, ATP luminescence, 48 h; activity change, negative = growth inhibition: at 46.2 µM (top of the series)
Method in brief: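 Chicken DT40 Tdp1-/- cells stably complemented with human TDP1 were seeded at 400 cells/well in medium containing 20 nM camptothecin, exposed to pin-transferred compounds, and grown at 37 °C for at least 48 hr. Viability was read as ATP luminescence.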
% is set by controls: 0 for no effect and ±100 for the full control effect; potency is the fitted concentration of half-maximal effect; tags give direction and shape of the fitted curve.

| Compound | Potency | activity change, negative = growth inhibition |
| --- | --- | --- |
| CCOc1ccc(NC(=O)c2sc(NC(C)=O)c(C(=O)OC)c2C)cc1 | inactive | – |
| O=C(NC1CCCC1)c1ccc2c(c1)N(Cc1ccc(F)cc1)CCS2 | inconclusive [inhibitor, single point] | – |
| CN1CCN(C(=O)/C(=C\c2cccnc2)NC(=O)c2cccc(Br)c2)CC1 | inactive | – |
| CC1=C(C(=O)NC2CCCc3c2cnn3-c2cc(F)cc(F)c2)OCCO1 (centres undefined) | inactive | – |
| COc1ccccc1-c1ccnc(-n2ncc(C(=O)N[C@H]3CCCCNC3=O)c2C2CC2)n1 | inconclusive [inhibitor, single point] | – |
| Cc1ccc(CNC(=O)Cn2ccn(-c3ccc(F)cc3)c(=O)c2=O)cc1 | inactive | – |
| CN(Cc1cnn(C)c1)C(=O)c1ccc(OC2CCN(CCc3ccccc3)CC2)cc1 | inconclusive [inhibitor, single point] | – |
| CC(=O)N1CCC2(CC1)CCN(c1ccc(-c3ccccc3)cc1)CC2 | active: 10.3 µM | – |
| C[C@H](O)[C@@H]1CN2CCc3c([nH]c4ccccc34)[C@@H]2C[C@@H]1N(C)C(=O)OCc1ccccc1 | inconclusive [inhibitor, single point] | – |
| CCCS(=O)(=O)NCCc1csc(-c2ccc(OC)c(OC)c2)n1 | inconclusive [inhibitor, single point] | – |
| COc1ccc(-c2cc(C(=O)N/N=C/c3sccc3C)c3ccccc3n2)c(OC)c1 | inconclusive [inhibitor, partial curve, poor fit] | – |
| CCOc1ccccc1CN1CCCC(CNC(=O)Cc2ccc(OC)cc2)C1 (centres undefined) | inactive | – |
| CN(C)S(=O)(=O)Oc1ccc(Cl)cc1C(=O)Nc1ccc(F)cc1F | inactive | – |
| Cc1ccc(C(=O)CC2(O)C(=O)N(Cc3ccc4c(c3)OCO4)c3ccccc32)cc1 (centres undefined) | inconclusive [inhibitor, single point] | – |
| Nc1ccc2nc(-c3ccccc3)c(-c3ccccc3)nc2c1 | inconclusive [inhibitor, single point] | – |
| COC(C(=O)N1CCC(n2nccc2NC(=O)C2CC2)CC1)c1ccccc1 (centres undefined) | inactive | – |
| COc1cc(/C=N/Nc2nncn2N)ccc1OCc1c(C)no[n+]1[O-] | inconclusive [inhibitor, single point] | – |
| COc1ccccc1CC(=O)NCC1Cc2cc(F)cc(-c3cncnc3)c2O1 (centres undefined) | – | inactive: 19.9% [at 9.04 µM] |
| CCCC(=O)Nc1ccccc1C(=O)OCc1cc(=O)n2nc(C(C)C)sc2n1 | inconclusive [inhibitor, partial curve] | – |
| O=c1c2ccccc2c(-c2ccccc2)nn1-c1cc(Cl)ccc1[N+](=O)[O-] | inconclusive [inhibitor, single point] | – |
| COc1ccc(OCc2ccc(-c3nc(C#N)c(NCc4cccnc4)o3)o2)cc1 | inconclusive [inhibitor, single point] | – |
| O=C(NNC(=O)c1cc2ccccc2cc1O)c1cccs1 | active: 23.1 µM | – |
| CCC(NC(=O)c1cc(COc2ccc(OC)cc2Cl)on1)c1ccncc1 (centres undefined) | inconclusive [inhibitor, single point] | – |
| N#Cc1cnn2c3c(cnc12)C(=O)N1CCc2ccccc2C1C3 (centres undefined) | inconclusive [inhibitor, single point] | – |
| COc1ccc(-c2sc(Nc3cccc4ccccc34)n[n+]2C)c(C)c1C | inconclusive [inhibitor, single point] | – |

| Compound | Potency | activity change, negative = growth inhibition |
| --- | --- | --- |
| COc1ccc(C(=O)N/C(=C/c2cccs2)C(=O)NN)cc1OC | inactive | – |
| COc1ccccc1NC(=S)NCC1CCCO1 (centres undefined) | inactive | – |
| CCCOC(=O)c1[nH]c2c(c1C)C(=O)CC(c1cc(OC)c(OC)c(OC)c1)C2 (centres undefined) | active: 9.2 µM | – |
| COc1ccc(C(=O)NC2CCCCCC2)cc1S(=O)(=O)N1CCCc2ccccc21 | inconclusive [inhibitor, single point] | – |
| CC(C)(C)OC(=O)N1CCC(C(=O)Nc2cccc(C(=O)NCCCCc3ccccc3)c2)CC1 | – | inconclusive: -33.6% [inhibitor] |
| Cc1ccccc1-n1ncc2c1CC(C)(C)CC2NC(=O)CCN1CCCCC1=O (centres undefined) | inconclusive [inhibitor, partial curve, poor fit] | – |
| CCN(CC)c1ccc(/C=C(/C#N)c2nc3ccc(C)cc3[nH]2)c(OC(C)C)c1 | active: 14.6 µM | – |
| O=C1C(Cl)=C(N2CCCCC2)C(=O)C(Cl)=C1c1cnc(N2CCCCC2)s1 | active: 0.92 µM | – |
| O=C1c2ccccc2C(=O)N1Cc1ccccc1F | inactive | – |
| Cc1cc([N+](=O)[O-])ccc1NC(=O)Nc1ccccc1F | inconclusive [inhibitor, single point] | – |
| Cc1ccc(S(=O)(=O)Nc2ccc3[nH]c(=O)[nH]c3c2)c(C)c1 | inactive | – |
| Cc1cc2oc(=O)cc(CN3CCOCC3)c2cc1O | inactive | – |
| Cc1nnc(NC(=O)C2CC(=O)N(C(C)c3ccccc3)C2)s1 (centres undefined) | inactive | – |
| COC(=O)c1cc2c(N)c(C(=O)c3ccc(Cl)cc3)sc2nc1C(OC)OC | inconclusive [inhibitor, single point] | – |
| CCOC(=O)c1cc(-c2csc(COc3ccccc3Cl)n2)on1 | active: 20.6 µM | – |
| CNC(=S)N(CCc1c(C)[nH]c2ccccc12)Cc1cc(OC)c(OC)c(OC)c1 | inconclusive [inhibitor, single point] | – |
| CCN(C(=O)Cn1c(=O)n(Cc2ccc3c(c2)OCO3)c(=O)c2ccc(C(=O)NC3CCCCC3)cc21)c1cccc(C)c1 | active: 14.6 µM | – |
| CN1CCN(Cc2nc3ccccc3c(=O)n2Cc2nc(-c3ccc4ccccc4c3)cs2)CC1 | active: 2.91 µM and active: 4.61 µM | – |
| COc1ccc(OC)c(S(=O)(=O)N2CCN(Cc3nc4ccc(C)cc4o3)CC2)c1 | inconclusive [inhibitor, single point] | – |
| O=C(CCCCCN1C(=O)c2ccccc2C1=O)Nc1cccc(O)c1 | inactive | – |
| Cc1ccccc1-c1nc(SCc2cccnc2)c2c(=O)n(C)c(=O)n(C)c2n1 | inactive | – |
| CCc1ccc(OCC(=O)N2CCN(c3ccccn3)CC2)c(Br)c1 | active: 13 µM | – |
| CC1CCN(CC(=O)Nc2ccccc2C#N)CC1 | inactive | – |
| COc1ccccc1NS(=O)(=O)c1cc(NC(=O)c2ccco2)ccc1N1CCOCC1 | inconclusive [inhibitor, partial curve] | – |
| OC(CNC1CCCC1)COc1ccc(Cl)cc1 (centres undefined) | inconclusive [inhibitor, single point] | – |

| Compound | Potency | activity change, negative = growth inhibition |
| --- | --- | --- |
| COC(=O)c1ccc(-n2c(/C=C/c3cc(OC)c(OC)c(OC)c3)nc3cc(Cl)ccc3c2=O)cc1 | active: 18.4 µM | – |
| Cc1ccc2oc(C(Cl)(Cl)Cl)cc(=O)c2c1 | active: 4.61 µM | – |
| Cc1cc(C(=O)N2CCC2(C)C(=O)NS(=O)(=O)c2cccc(OC(F)F)c2)nn1C (centres undefined) | inactive | – |
| Cc1cc(C)cc(NC(=O)N2CCN(C(=O)c3nsc4ccccc34)CC2)c1 | inconclusive [inhibitor, single point] | – |
| CCNc1cc2c(cc1O)CCC1C2CCC2(C)C(O)CCC12 (centres undefined) | active: 7.31 µM | – |
| Cc1ccc(C)c(S(=O)(=O)N2CCCCC2CCNC(=O)C(=O)NCc2ccncc2)c1 (centres undefined) | inconclusive [inhibitor, single point] | – |
| CC(C)CN(C(=O)COC(=O)CCc1nc2ccccc2s1)c1c(N)n(Cc2ccccc2)c(=O)[nH]c1=O | active: 16.4 µM | – |
| C=CCN1C(=O)/C(=C/C=C2/N(CC)c3ccc(S(=O)(=O)N(C)C)cc3N2CC)SC1=S | inconclusive [inhibitor, full curve] | – |
| CCCc1cc(C(=O)NCc2cccs2)no1 | inactive | – |
| Cc1cc(Br)ccc1NC(=O)COC(=O)c1ccccc1OCC(=O)N(C)C | inactive | – |
| CSc1ncnc2c1ncn2CCCNCc1cccc2ccccc12 | inactive | – |
| O=S(=O)(c1ccc(F)cc1)c1nc(-c2ccc(F)cc2)oc1NCCN1CCOCC1 | inactive | – |
| CCCC(C)C(=O)Nc1ncc(S(=O)(=O)c2ccc([N+](=O)[O-])cc2)s1 (centres undefined) | active: 14.6 µM | – |
| CC(=O)Nc1ccc(NC(=O)C(NS(=O)(=O)c2ccc(Br)s2)c2ccccc2)cc1 (centres undefined) | inconclusive [inhibitor, single point] | – |
| COc1ccccc1/C=C\C(=O)NCC(=O)N/N=C(/C)c1cccc([N+](=O)[O-])c1 | inconclusive [inhibitor, single point] | – |
| CCOc1ccc(S(=O)(=O)N2CCN(C(=O)c3cc4ccccc4o3)CC2)cc1 | active: 20.6 µM | – |
| O=C(NCc1cccs1)C1CCCN(c2nc3ccccc3o2)C1 (centres undefined) | inactive | – |
| CCCCn1c(N)c(N(CC)C(=O)C2=COCCO2)c(=O)[nH]c1=O | inactive | – |
| Cc1ccc(CNC(=O)CCc2nc3cccnc3n2Cc2ccccc2)cc1 | active: 14.6 µM | – |
| CN(CC(=O)Nc1ccc(Cl)c(S(=O)(=O)N2CCOCC2)c1)C(=O)c1cccs1 | inconclusive [inhibitor, single point] | – |
| CCOC(=O)C1CCCN(C(=O)c2ccc3nc(-c4cccc(OC)c4)oc3c2)C1 (centres undefined) | active: 3.26 µM | – |
| O=C(OCC(=O)N1CCCc2ccccc21)c1cc(S(=O)(=O)N2CCOCC2)ccc1Cl | inconclusive [inhibitor, single point] | – |
| COc1ccc(-c2sc3ccccc3c2C#CCO)cc1 | inactive | – |
| CCC1OC(=O)C(C)[C@@H](O[C@H]2C[C@@](C)(OC)C(O)C(C)O2)C(C)[C@@H](O[C@@H]2OC(C)CC(N(C)C)C2O)[C@](C)(O)CC(C)/C(=N\OCOCCOC)[C@H](C)C(O)[C@]1(C)O (some centres undefined) | inactive | – |
